Experimental data taken from PubChem BioAssay AID686971 (National Center for Advancing Translational Sciences (NCATS), 2013).
The campaign covered roughly 360,000 compounds. About 7,500 (2.1%) were called active. Another 8% or so got no clear call; they are omitted. Calls come from the whole dose curve; as a rule, active = well fitted cell-killing curve with a large enough effect; inconclusive = small, poorly fitted or top-dose-only effect, or effect the other way, or another doubt; inactive = no such curve, though single readings can be large or run the other way. The entries are a selection whose mix differs from that of the whole data set.

Assay: qHTS for induction of synthetic lethality in tumor cells producing 2HG: qHTS for the HT-1080-IDH1KD cell line
Settings: HT-1080 IDH1 knockdown viability, ATP luminescence, 48 h; series mostly up to 46.1 µM; activity, negative = toxicity: at the top concentration
Text: Unbiased genomic sequencing for 22 glioma genomes found recurrent mutation of IDH1 on chromosome 2q33, a gene encoding the cytosolic isoform of IIDH1 associated with the tri-carboxylic acid cycle (TCA) that catalyzes the oxidative decarboxylation of isocitrate, yielding alpha-ketoglutarate and CO2 via NADP+ to NADPH conversion. Subsequent studies confirmed the recurrent IDH mutations in up to 70% of secondary gliomas and in 10% of AML cases. In addition, the somatic mutation of cancer-associated IDH1 is a point mutation resulting in various amino-acid substituents at Arginine132 (IDH1 R132), a key residue found in the enzyme's active site that when mutated, results in the loss-of-function in metabolizing isocitrate but confers a gain-of-function to produce the oncometabolite 2-hydroxyglutarate (2HG). This in effect defines IDH1 as an oncogene and provides an extraordinary opportunity to discover chemical probes against mutant IDH1 that may translate into much needed new therapies for glioma and AML patients.
This assay aims to perform a synthetic-lethal screen for chemical probes specific for 2HG-producing tumor cells using matched paired cell lines (1) HT-1080-NT fibrosarcoma cell line that overproduces 2HG and (2) HT-1080-IDH1KD cell line which has IDH1 expression knocked-down. Desirable compounds are toxic to the NT fibrosarcoma cell line but not to the IDH1KD cell line. The data in this AID corresponds to the results of the qHTS against the HT-1080 IDH1KD cell line.
[1] Dang L, Jin S, Su SM. IDH mutations in glioma and acute myeloid leukemia. Trends of Mol Med. 2010; 16(9): 387-97.
[2] Dang L et al. Cancer-associated IDH1 mutations produce 2-hydroxyglutarate. Nature. 2010; 465(7300):966.
Molecular Libraries Probe Production Centers Network [MLPCN]
NIH Chemical Genomics Center [NCGC]
Assay Submitter (PI): Lenny Dang Ph.D., Agios Pharmaceuticals
Suspensions of trypsinized HT-1080-IDH1KD cells were dispensed into white, tissue culture-treated, solid 1536-well plates at 5uL/well (750 cells/well final concentration) in RPMI medium supplemented with 5% FBS. Plates were incubated at 37 degrees C for 2 hours, after which 23 nL of compounds or DMSO were delivered to each well using a pin tool. Plates were then incubated at 37 degrees C for an additional 48 hours. CellTiter-Glo viability reagent (Promega) was dispensed into wells (2.5uL/well) and incubated at room temperature for 10 minutes. The plates were measured on a PerkinElmer ViewLux plate reader for luminescent signal (clear filter, 1 sec exp.). DMSO-treated control wells and media-only (no cells) control wells were used to normalize %Activity of identified toxic compounds; DMSO-treated wells corresponded to 0%Activity (100% viability), while media-only controls were used to normalize 100%Activity (0% viability). To minimize variability between cell lines, both HT-1080-NT and HT-1080-IDH1KD lines were dispensed and treated with identical compound series in single batches.
Concentration-response curves were fitted to the signals arising from the resulting luminescence. The concentration-effect curves were then classified based on curve quality (r2), response magnitude and degree of measured activity, and compounds were subsequently categorized based on their curve class.
Potency is the fitted concentration of half-maximal effect.

| SMILES | activity, negative = toxicity | Potency |
| --- | --- | --- |
| CN(C)CCC[C@]1(c2ccc(F)cc2)OCc2cc(C#N)ccc21 | inactive: -19.4% | – |
| O=C1NC[C@H](Cc2ccc(O)cc2)N(C[C@@H]2CCCN2C[C@H](Cc2ccccc2)N2C[C@H](Cc3ccccc3)N(CCc3ccccc3)C(=O)C2=O)C1=O | inactive: 12.5% | – |
| CC(C)[C@H]1C(=O)Nc2ccccc2N1C(=O)N[C@@H](Cc1ccccc1)C(=O)N[C@H](Cc1ccccc1)C(=O)O | inactive: 10.5% | – |
| CNc1nc2cc([N+](=O)[O-])c([N+](=O)[O-])cc2nc1NC | – | active: 3.26 µM |
| CCOC(=O)/C(=N/Nc1ccc(Br)cc1)N1CC(C)OC(C)C1 (centres undefined) | inactive: -29.9% | – |
| O=C(CCCN1C(=O)/C(=C/c2ccccc2)SC1=S)Nc1ccc(O)cc1 | inactive: -0.0866% | – |
| Cc1ccc(C(=O)C[n+]2cc(-c3ccccc3)n3c2CCCCC3)cc1 | inactive: -29% | – |
| COc1cc2cc(C(=O)NC(C)c3cccc4ccccc34)c(N)nc2cc1OC (centres undefined) | – | active: 18.4 µM |
| Cc1ccc(C)c(N2CCN(C(=O)c3cccn4c(=O)c5sccc5nc34)CC2)c1 | – | active: 16.4 µM |
| O=C(Nc1ccn([C@H]2CC[C@@H](CO)O2)c(=O)n1)c1ccccc1 | inactive: 2.96% | – |
| Cc1ccc(S(=O)(=O)N2[C@@H](c3cccc(Cl)c3)C(C(=O)O)=CC[C@H]2c2ccc(Cl)c(Cl)c2)cc1 | inactive: -25.3% | – |
| COc1ccc(/C=C2/SC(=O)N(CCC(=O)Nc3ccccc3)C2=O)cc1OC | inactive: -2.79% | – |
| Cc1cccc(Nc2nnc(SC/C(O)=C(\C#N)c3nc4ccccc4[nH]3)s2)c1 | inactive: 1.88% | – |
| CC(C)c1ccc(O)c(NC(=S)NC(=O)c2ccc3c(c2)OCO3)c1 | – | active: 14.6 µM |
| CN(C)CCCNc1nc2cc(-c3cccc(Cl)c3)sc2c(=O)n1C | – | active: 16.4 µM |
| CC1(Oc2ccc3ccccc3c2)CCN(Cc2cccn2-c2nccs2)C1 (centres undefined) | – | active: 14.6 µM |
| CCS(=O)(=O)Nc1ccc(C2=NN(C(C)=O)C(c3cccs3)C2)cc1 (centres undefined) | – | active: 16.4 µM |
| NS(=O)(=O)c1ccc(Nc2nc(-c3ccc(F)cc3)cs2)cc1 | – | active: 14.6 µM |
| CN1CCN(CCC=C2c3ccccc3Sc3ccc(S(=O)(=O)N(C)C)cc32)CC1 | inactive: 6.1% | – |
| COc1cc2nc(CN(C)Cc3nc4ccccc4c(=O)[nH]3)[nH]c(=O)c2cc1OC | – | active: 7.08 µM |
| CCCCOc1ccc(C(=O)C(CN2CCOCC2)c2ccccc2)cc1 (centres undefined) | – | active: 16.4 µM |
| Cc1cn([C@H]2C=C[C@@H](CO)O2)c(=O)[nH]c1=O | inactive: 0.549% | – |
| COc1cc([C@@H]2Oc3cc(C4Oc5cc(O)cc(O)c5C(=O)[C@H]4O)ccc3O[C@H]2CO)ccc1O (some centres undefined) | inactive: -10.3% | – |
| Cc1ccc(S(=O)(=O)CCc2nnc(NC(=O)CCl)s2)cc1C | – | active: 14.6 µM |
